# In the RNAGym collection of RNA variant scans (doi:10.7554/elife.90254):
# Read counts are not given, so values of variants with three or more changes are uncertain.
# B1: OR4K15 (parent)
# chain: GUUAACGGUCAUAGGCCAUGGAAACUAGGAGCACCAUUUCGCUGCCAGUGAAGAAAUGAACAAAGAAAAUCUGGGCCAGGCAGGCAUCAAAAGAAAUAGUCUUGCGCUCAACCAGAAAGUCUGUAAUCAUUUUAAGGGUA
# Variants of: B1
# Assay: self-cleavage, relative activity (ratio to wild type); higher = more cleavage; in vitro, sequencing; the parent is a self-cleaving ribozyme
row,Variant,self-cleavage
1,A63G A64G A111C A118G,0.02
2,A30G A52G A64G A114U,0.15
3,U37C A86G U122C,1
4,A52G C76G A116G,0.04
5,A47U A59G A86G A117G U120C U139A,0.27
6,U3C A47G U49C A59G A64G U122A,0.49
7,A54G A64G U103C,0.74
8,A4G U9C A22G A59G,1.86
9,U9C A33G A96G,0.98
10,A52G G58A A89G A118G,0.62
11,A92G A95U G138U,2.18
12,A59G A118G A126G,0.35
13,G1U U2C A117G,1.72
14,U26A A30G U102C,1.04
15,G7U A33C U49A,2.21
16,A23G G75C G123A A126U,0.23
17,A23G A69G U100C U120A,2.47
18,U39C A78G A125U,0.38
19,A23G A60U U100G,1.02
20,A33G U43G A116G,0.43
21,U70C A78G A118G,0.15
22,A47U A98G U122C,0.11
23,U19A A24G A95G,1.51
24,A30C A90G A118G,0.72

row,Variant,self-cleavage
1,A64G A82G A86U,1.01
2,A91G A92G U100C,1.82
3,U49C A92U A94G U139C,1.67
4,U39C A51G A91G,0.77
5,U37C A52U A140U,1.09
6,G44A A62G A86G U108A,0.01
7,A22G A36G A68U,1.93
8,G8A U43A U120C,1.85
9,A36G A62U A90G A114G,0.34
10,A5G A118G U131C,0.34
11,U72C U102C A110G,0.04
12,A11G G50A A59G,0.68
13,A22G A27U U57C A86G U130C,0.94
14,U9C C34U A111G,0.04
15,A62C U70C G75A A135G,0.09
16,A18U A56G U120C,0.85
17,U39A A51C A78G A82U,0.12
18,A59G A69G A78G G83A,0.34
19,A23G A69G U72A A118G,0.22
20,A11C U19A U38C U43C A55G A134G,0.88
21,A68C A69U A78G,0.21
22,U9C A24U A110G,0.07
23,C42U U43G A69G G80A A96G,0.15
24,U2C A64U A111G U132C,0.01

row,Variant,self-cleavage
1,A5G A68G A90U A95G U120A,2.08
2,A33G A56U A95G,2.09
3,A27U A30G U39A A47G A68C,1.08
4,U38C U87C A95G G138C,1.51
5,U9C U39A U49C A116G U122C,0.69
6,A22U U37C C61U A90C,1.88
7,U38C U43C A59G,0.82
8,A5G A11G A33G A86G A95G,1.51
9,A22G A24U A51G,1.36
10,A24G A86U A92G U132C,1.16
11,A60G A68U U102C U103C,0.18
12,A56G U57C A117G,0.86
13,A30G U72C A116G,0.24
14,A5G A55G A63G A78G A92C,0.1
15,A63G A114G U133C,0.41
16,C10U A30G C32U A47G U49C,1.32
17,U57C A68G U132C A134G,1.21
18,A18U A27G U87C C112U U132C,0.01
19,U2C A47U U49C U100A U122C,0.1
20,A22G U26A A134G,0.87
21,A18U A63C A90G A94G A110U,0.68
22,C45U A82G U108C,0.02
23,A5G A27G U57C A62U A116G G123A,0.46
24,U102C U120G U130C,2.27

row,Variant,self-cleavage
1,U2A A33G U57C A82G,0.46
2,A24G A118G U122C,1.97
3,A33U A67G A140G,2.79
4,A24G U37C A51G,0.76
5,A23G A64G U87C U103C A118U,0.04
6,A11U A51U A69G,1.45
7,A22G A55U A114G A117G,0.56
8,A89U A111G U139A,0
9,U12C A30G U100C A118G,1.58
10,U37C A52G A66U U72C A92U,0.24
11,A52G A64G U102A A117G,1
12,A60G A98G A126G A129G,0.3
13,U49C G53C A54G A78U,0.24
14,A18U C32U A56G,1.29
15,U43C A63U A82G A114G A126G,0.25
16,U19C A66G A90G,1.46
17,A30U G53A A60C A67G A78G A110G,0.03
18,U19A A68G U97C A110G,0.09
19,A5G A23U A54U A60G,0.88
20,U38C A52U U57C A78G A95G,0.18
21,A55G A56G U72C A111G U133C,0.03
22,U12A A60G A67G,0.48
23,A18G U37A A90U A94G A95G,1.51
24,U39C A69G U87C,1.3

row,Variant,self-cleavage
1,U37C G84A C88U A96G C105G A129G,0
2,A23G U38C A54G A55G A60G A94G A114G,0.1
3,G7A U9A U49C A55G A59G U133C,1.06
4,U49C A59G A90G,1.75
5,U19A U49A U87A U124C,0.9
6,U43C A78G A90G,0.23
7,A5G U57C A63G A118G U127C A129G,0.12
8,C6U U26C A94U A116U,0.59
9,A68U G83A A126G,1.96
10,U9A A27G A118G,1.23
11,A13G A22G A118U,0.31
12,A5G G7U A24G A68G A78G,0.36
13,U26C A134U U139C,1.27
14,U3C U9C A36G A59G,0.21
15,G15C U57A A96G U97A C112U,0.01
16,A5U A24U A78G,0.44
17,U9C U49A A54G A126G,0.52
18,U57C A86G A126G,0.8
19,A94G A116G U127A,0.75
20,A11U U37C A69G,0.58
21,C105U A118G U139C,0.14
22,A33U U39C U87C U103C,1.02
23,A30U C112U A118G,0
24,A18G U19C A22G U57C A59U A78U U132C,0.18

row,Variant,self-cleavage
1,A5G C46U A126G,1.15
2,U19C A63G U127C A140U,0.96
3,A51G U127C A140G,1.06
4,A90G A129G U130C,0.26
5,A64G C109U A110G,0.02
6,U39C A55G C121U,0.97
7,A13G A22U G28U A30G A52G,1.09
8,A4G G53A U127C,1
9,A52G A62G A89G A117U U122C U130C,1
10,A13G A96C A117G,1.88
11,A24U A68G A96G,1.09
12,G21A A24G U72A A96G,0.16
13,A55G A56G U57G A94C,0.22
14,A98G A117U U120C,0.38
15,A4C G44A A68G A135U,1.09
16,U39A A54G A78G U130C,0.13
17,A47U A111G A125G,0.01
18,U2G A51G A91G,0.77
19,A18G A47C A68G A86G U87C U131C,0.86
20,U2A U39C A54G G74A C128U,0.44
21,A11G A22G U57C,1.53
22,U37C A56G U72C U108C G119A A129G,0
23,A82G A94G U103C,1.57
24,A36G G58A G79A A89U A118G,0.19

row,Variant,self-cleavage
1,A11U A64G A91G A114G,0.44
2,A36U U38C C45A A118G,0.76
3,U9A A90G A92G A96G,0.47
4,A23G A60G A82U A86U A98G U127A U132C,0.03
5,A11G U49A U139C,1.46
6,A4G A5G A23G A67G,0.46
7,U49A U57A A118G,0.42
8,U100C U103C A110G,0.11
9,A18G A94G A114G,0.27
10,A24G A30G U103C,0.8
11,A11G A33G A64G,0.85
12,A56G A82C A117G,0.15
13,U43A G53A A92U U131C,1.78
14,A13U A118G U139C,1.02
15,A47G A94U U103C,0.87
16,A4G A13U A94G,0.59
17,A55G U139C A140G,0.94
18,A36U A68U U122C,1.99
19,U39C A62U A91G,0.81
20,U38C G41C A52G,2.53
21,U57C A68C A86U,1.91
22,A11G A27G G28A A51U,0.96
23,A63G A86G U97A,1.35
